# PubChem BioAssay AID686971 (National Center for Advancing Translational Sciences (NCATS), 2013)
# Hit rate of the full screen: of about 360,000 compounds, about 7,500 (2.1%) were called active. Inconclusive results, whose numbers are uncertain, are shown with a selection of clear calls. The call rests on the fitted dose curve; in most records, active means well fitted cell-killing curve with a large enough effect; inconclusive means small, poorly fitted or top-dose-only effect, or effect the other way, or another doubt; inactive means no such curve, though single readings can be large or run the other way. No potency is given beside an inconclusive call; the fits are too rough.
# Test: qHTS for induction of synthetic lethality in tumor cells producing 2HG: qHTS for the HT-1080-IDH1KD cell line
# Settings: HT-1080 IDH1 knockdown viability, ATP luminescence, 48 h; series mostly up to 46.1 µM
# Summary of the method: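 % activity derives from luminescence (CellTiter-Glo), normalised to DMSO and no-cell wells. HT-1080-IDH1KD cells, 750/well, had 48 h compound exposure at 37 °C.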
# Potency means the concentration at half of the fitted maximal effect; tags describe the fitted curve by direction and shape.
row,Structure (SMILES),Potency
1,COc1cccc2nc3cc(C)c(C)cc3nc12,active: 8.2 µM
2,C=CCn1c(CCNC(=O)c2cccs2)nnc1SCC(=O)c1ccc(Br)cc1,"inconclusive [cytotoxic, single point]"
3,COc1ccc(-c2nnc(SCC(=O)N3CCc4ccccc4C3)o2)cc1,"inconclusive [cytotoxic, single point]"
4,Cc1cc(C)c2nc(-c3ccccn3)cc(C(=O)NCCc3ccc(S(N)(=O)=O)cc3)c2c1,"inconclusive [cytotoxic, partial curve, poor fit]"
5,CC1(C(=O)NCc2ccc(F)c(F)c2)Cc2c(-c3cccc(C(F)(F)F)c3)ccnc2O1 (stereo not drawn),"inconclusive [cytotoxic, single point]"
6,COc1ccc(NS(=O)(=O)c2cc(NC(=O)c3sccc3C)ccc2N2CCOCC2)cc1,inactive
7,O=C(OCC(=O)N(Cc1ccccc1)Cc1ccccc1)c1ccccc1O,inactive
8,CCCNC(=O)CN1C(=O)COc2ccc(S(=O)(=O)N3CC(C)CC(C)C3)cc21 (stereo not drawn),inactive
9,COc1ccc(-c2ccc(C(=O)NCc3ccc(N(C)C)cc3)c3occc23)c(C)c1,"inconclusive [cytotoxic, single point]"
10,O=C(Cn1cnc2c(cnn2-c2ccccc2Cl)c1=O)N1CCc2ccccc21,"inconclusive [cytotoxic, single point]"
11,CC(CO)Nc1nc(SCc2ccccc2)nc2sc3c(c12)CCC3 (stereo not drawn),"inconclusive [cytotoxic, partial curve]"
12,C=CCc1c(C)nc(SC)nc1Nc1ccc(C(=O)O)cc1,"inconclusive [cytotoxic, partial curve]"
13,CCCCn1c(C)csc1=Nc1cccnc1,inactive
14,Clc1cncc(Cl)c1N/N=C/c1ccncc1,"inconclusive [cytotoxic, single point]"
15,CC#CCN(Cc1ccco1)C(=O)C1CCC(=O)N(CCc2cccc(F)c2)C1 (stereo not drawn),inactive
16,COC(=O)c1ccccc1-c1ccc(C(c2c(C)[nH][nH]c2=O)c2c(C)[nH][nH]c2=O)o1,"inconclusive [cytotoxic, partial curve]"
17,O=C(NCCN1CCOCC1)c1ccccc1N1C(=O)[C@@H]2Cc3c([nH]c4ccccc34)C(c3ccc(F)cc3)N2C1=O (stereo partly drawn),inactive
18,CCC1(C)Cc2c(sc3[nH]c(=S)n(Cc4ccccc4)c(=O)c23)CO1 (stereo not drawn),active: 14.6 µM
19,OC1(c2ccccc2)CC(c2ccccc2)c2ccccc2O1 (stereo not drawn),"inconclusive [cytotoxic, single point]"
20,O=C(CSc1nnc(-c2cccs2)n1Cc1ccco1)Nc1ccc2c(c1)OCO2,inactive
21,CCc1nc2ccc(C(=O)NCCCn3ccnc3)cn2c1N(C)CCCc1ccccc1,"inconclusive [cytotoxic, partial curve]"
22,O=C(Nc1nc2ccc(Cl)cc2s1)c1ccco1,"inconclusive [cytotoxic, single point]"
23,Cc1cc(C)c2cc(C#N)c(N3CCCN(C(=O)c4cnccn4)CC3)nc2c1,inactive
24,CCC(=O)Nc1ccc2c(c1)nc(CCN1CCN(c3ccccn3)CC1)n2C,"inconclusive [rising, partial curve]"
25,CC(OC(=O)c1cc(O)c2ccccc2c1O)C(=O)Nc1ccc(C(N)=O)cc1 (stereo not drawn),"inconclusive [cytotoxic, partial curve]"

row,Structure (SMILES),Potency
1,Oc1cc2c(cc1O)[C@H]1c3ccc(O)c(O)c3OC[C@@]1(O)C2,"inconclusive [cytotoxic, single point]"
2,COc1ccccc1CCC(=O)OCC(=O)Nc1cc(C)nn1-c1ccccc1,inactive
3,COc1ccc(NC(=O)CSc2nccn2-c2ccccc2)cc1,inactive
4,COc1ccc2[nH]c(=O)c(CN(CC3CCCO3)C(=S)Nc3cccc(C)c3)cc2c1 (stereo not drawn),inactive
5,N#CC1=C(N)Oc2cc(N)ccc2C1c1ccc(F)cc1F (stereo not drawn),"inconclusive [cytotoxic, partial curve]"
6,CCOc1ccc(N=c2cc(-c3ccc(OC)cc3)oc3ccccc23)cc1,"inconclusive [cytotoxic, single point]"
7,CCCOc1ccc(N2C(=O)CC(SC(=NCC)Nc3cccc(F)c3)C2=O)cc1 (stereo not drawn),"inconclusive [cytotoxic, single point]"
8,COc1ccc(-c2cc(C(=O)NNC3=NCCC3)c3c(C)nn(-c4ccccc4)c3n2)cc1,"inconclusive [cytotoxic, single point]"
9,CS(=O)(=O)c1nc(-c2ccc(F)cc2)cc(C(F)(F)F)n1,active: 8.2 µM
10,COc1ccc(Nc2ncnc3scc(-c4ccc(OC)cc4)c23)cc1,"inconclusive [cytotoxic, single point]"
11,CCOC(=O)N1CCN(C2=C(NS(=O)(=O)c3ccc(Br)cc3)C(=O)c3ccccc3C2=O)CC1,"inconclusive [cytotoxic, single point]"
12,CCOC(=O)[C@]12CCC=C1N(Cc1ccc(Cl)cc1Cl)C(=O)[C@H](CC(=O)N1CCCCC1)C2,"inconclusive [cytotoxic, partial curve]"
13,CCOC(=O)C1=C(N)Oc2cc(O)ccc2C1c1cccc(Cl)c1 (stereo not drawn),active: 7.31 µM
14,CC(C)CNC(=S)N1CCC(Cc2ccccc2)CC1,"inconclusive [cytotoxic, single point]"
15,CC1(C)CC2CC(C)(CN2C(=S)Nc2ccccc2F)C1 (stereo not drawn),inactive
16,O=C(c1ccc(CS(=O)c2ccccc2Cl)o1)N1CCN(c2ccccc2)CC1 (stereo not drawn),active: 0.517 µM
17,COc1ccc(CCC2(C)OCC(CCCCO)O2)cc1 (stereo not drawn),inactive
18,Cc1cc(O)c2c(-c3ccccc3)cc(=O)oc2c1,"inconclusive [cytotoxic, partial curve]"
19,COc1ccccc1NC(=O)c1cc(S(=O)(=O)NCc2ccccc2)ccc1F,"inconclusive [cytotoxic, single point]"
20,Cc1ccc(Cl)cc1N(CC(=O)Nc1cccc(N(C)S(C)(=O)=O)c1)S(C)(=O)=O,"inconclusive [cytotoxic, partial curve]"
21,C=C(C)COc1ccc(-c2[nH]ncc2-c2ccccc2OC)c(O)c1,active: 18.4 µM
22,OC(c1ccc(Cl)cc1)c1ncc(-c2ccc(Oc3ccccc3)cc2)[nH]1 (stereo not drawn),active: 23.1 µM
23,COc1ccc(C(CCN2CCOCC2)c2c(OC)cc(OC)c3c(-c4ccccc4)cc(=O)oc23)cc1 (stereo not drawn),"inconclusive [cytotoxic, single point]"
24,CN(c1cccc(NC(=O)c2ccc(CN3CCc4ccccc4C3)cc2)c1)S(C)(=O)=O,"inconclusive [cytotoxic, partial curve]"
25,COc1ccc(C2C3=C(CC(C)(C)CC3=O)Nc3c2c(=O)[nH]c(=O)n3Cc2ccccc2)cc1OC (stereo not drawn),"inconclusive [cytotoxic, partial curve]"

row,Structure (SMILES),Potency
1,Clc1ccc(OCCOCCN2CCc3ccccc3C2)c(Cl)c1,active: 23.1 µM
2,CCCCC(CC)CNC(=O)C(Cc1ccccc1)NS(=O)(=O)c1ccc2c(c1)CCC(=O)N2 (stereo not drawn),inactive
3,Cc1ccc(O)c(N=Nc2nccs2)c1,"inconclusive [cytotoxic, single point]"
4,CC1Cc2ccccc2N1C(=O)C1CCCN(S(=O)(=O)c2cccc3cccnc23)C1 (stereo not drawn),inactive
5,CC(C)(C)c1ccc(S(=O)(=O)N(CCCN2CCOCC2)Cc2cccs2)cc1,"inconclusive [cytotoxic, single point]"
6,O=C1/C(=C/c2ccccc2)Nc2ccccc21,inactive
7,O=C(NNC(=S)Nc1cccc(C(F)(F)F)c1)c1ccccc1Cl,"inconclusive [cytotoxic, partial curve]"
8,CCC1CSC(Nc2ccc(C(=O)/C=C/c3ccc(OC)c(OC)c3)cc2)=N1 (stereo not drawn),"inconclusive [cytotoxic, single point]"
9,O=C(CSc1nc2nn(-c3ccccc3)c(=O)c-2c2n1CCCCC2)c1ccc(OC(F)F)cc1,inactive
10,CCOP(=O)(OCC)c1nc(-c2ccccc2)oc1N1CCCCC1,inactive
11,Cc1c(NC(=O)COc2c(F)c(F)c(F)c(F)c2F)c(=O)n(-c2ccccc2)n1C,inactive
12,CCOc1ccc2nc(SCCNS(=O)(=O)c3ccccc3)sc2c1,"inconclusive [cytotoxic, single point]"
13,CN(C)c1ccc(N=Cc2nc(-c3ccccc3)oc2OC(=O)c2ccccc2)cc1,inactive
14,COc1ccccc1CC(=O)Nc1ccc(S(=O)(=O)N2CCCCC2)cc1,inactive
15,CCOC(=O)N1CCN(C(=O)c2ccc3[nH]c(C)c(C)c3c2)CC1,inactive
16,COc1ccccc1OCCn1c(=S)[nH]c2ccccc21,"inconclusive [cytotoxic, partial curve, poor fit]"
17,CCN(CC(=O)NCCc1ccc(S(N)(=O)=O)cc1)Cc1ccccc1,inactive
18,Cc1csc(NC(=O)c2cc3c(s2)CCCCC3)n1,"inconclusive [cytotoxic, single point]"
19,NC(=S)NN=C1CSSC1,"inconclusive [cytotoxic, single point]"
20,COc1ccccc1N(CC(=O)NC1CCCC1)C(=O)c1csnn1,inactive
21,COc1ccc(NC(=O)/C=C/c2cc(OC)c(OC)c(OC)c2)cn1,inactive
22,CC(=O)c1c(CC(=O)O)[nH]n(-c2nc3ccccc3s2)c1=O,active: 10 µM
23,O=C(NC1CCCCC1)C(c1ccccn1)N(C(=O)Cc1cccs1)c1ccc(Cl)cc1 (stereo not drawn),"inconclusive [cytotoxic, single point]"
